# Test results from the supplement of paper PMC11417369.
# ± gives the standard deviation of the averaged measurements. The list shows a part of the results.
# System: PfAP2-I AP2 domain 3 (GST-tagged)
# Test: gcPBM binding intensity (ln(normalized median fluorescence intensity)); higher = stronger DNA binding
# Outline: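 Alexa488 anti-GST antibody, scanned at 488 nm, detected GST-tagged P. falciparum DNA-binding domains that had been expressed in E. coli and incubated for 1 h on an Agilent 4 × 180k array. The array carried primer-extended double-stranded 36-bp intergenic genomic probes and negative controls. Binding intensity is the highest Masliner-normalised natural-log median intensity across replicate spots of either orientation of each probe.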
row,Sequence,gcPBM binding intensity (ln)
1,AAATCAAATTTTTAGAGTACTTAAGTTTTCTATATA [XGTACX_site7827],7.63 ± 0.5
2,ATCACAAAAAAGTTCATACACACAACCTATTTATAT [CACACA_site2888],7.76 ± 0.57
3,TCCCCATATGTTTTGTGTACATATATATTTTTTTGT [XGTACX_site75],8.46 ± 0.3
4,TAATATATTAATATATGTACATATTTATATATCTAC [XGTACX_site7117],7.88 ± 0.46
5,GGAAAAAAATAAAATAAGTATTTTACATACATATTG [TGCATGCA_negctrl_site10],7.24 ± 0.49
6,ATATATTTTTATATAGTGCAAGTAATAAAAAGGAAT,10.04 ± 0.099
7,ATATCATTTTATTTGTGTACTTAAAAAGTTGCAATG [XGTACX_site4099],8.1 ± 0.26
8,AAAACTTTTTTAACAGAAAAATAGGGATACAATATA [CACACA_negctrl_site1708],7.96 ± 0.44
9,ATAACATTCAAAAAATGTACAAACATATGAATAAAT [XGTACX_site7013],7.75 ± 0.52
10,GGAATAACCAGACACACACACACATATAAATATGTA [CACACA_site7632],7.82 ± 0.52
11,TAAATACAAGAACTGACACACATACATACTACATTT [CACACA_site5561],7.7 ± 0.49
12,AAATAGTTGTTAAAGGTGCACAATATGGATATAAGA,11.5 ± 0.38
13,TGAAAATATATAACGCGTACAAAAAGGAAATACAAT [XGTACX_site3534],8.38 ± 0.64
14,TTTTTTTTTTTTTTTGCATGTTGAAAATAAAATTAT [TGCATGCA_site86],8.18 ± 0.71
15,ATTTATTTTAAATAAGTGCAAAATGGTTATAAATAA,9.72 ± 0.16
16,ATGTACTATAGGCACACACACTCACATATATATATA [CACACA_site5745],9.64 ± 0.27
17,AAAATTTCAATAAATACACACATATAAATATAGATT [CACACA_site6893],7.46 ± 0.37
18,ATAAATATTTTGTAAGCATGCTTTTAAAAAAAGAAA [TGCATGCA_site572],7.59 ± 0.51
19,ATTATATATATATTATGTACATATATTGAAGTGGAT [XGTACX_site5916],8.21 ± 0.38
20,ACGGATTAAAAAATGTGTACGCACAAAAAAAAAAAT [XGTACX_site8259],8.71 ± 0.27
21,TACGAAATCATATGTACACACACATATATATATATA [CACACA_site5216],9.53 ± 0.42
22,TGTTCAGTATTGCACACACACAACAAAATAAAAAAA [CACACA_site6314],10.3 ± 0.81
23,ATATATATATATATATGTACTTAATGTTATTATATA [XGTACX_site4508],9.26 ± 0.47
24,GAAATGTGATAATATACACACACGCATATATATATA [CACACA_site4332],9.27 ± 0.099
25,TATACATATATATATATATATAGATATATTCACGTG [XGTACX_negctrl_site265],7.79 ± 0.43
